# Laboratory results taken from patent US20100196361A1, “Method of inhibition of vascular development using an antibody” (DYAX CORP., priority 2003, published 2010).
# B1: DX-2240: germlined f allotyped E3 antibody; light chain SEQ ID NO:724, heavy chain SEQ ID NO:723 (antibody)
# heavy: EVQLLESGGGLVQPGGSLRLSCAASGFTFSMYGMVWVRQAPGKGLEWVSVISPSGGNTGYADSVKGRFTISRDNSKNTLYLQMNSLRAEDTAVYYCARAPRGYSYGYYYWGQGTLVTVSSASTKGPSVFPLAPSSKSTSGGTAALGCLVKDYFPEPVTVSWNSGALTSGVHTFPAVLQSSGLYSLSSVVTVPSSSLGTQTYICNVNHKPSNTKVDKRV[left out - human IgG1 Fc]
# light: DIQMTQSPSSLSASVGDRVTITCRASQGIGHYLAWYQQKPGKVPKLLIYTASTLQSGVPSRFSGSGSGTDFTLTISSLQPEDVATYYCQQFNSYPHTFGQGTRLEIKRTVAAPSVFIFPPSDEQLKSGTASVVCLLNNFYPREAKVQWKVDNALQSGNSQESVTEQDSKDSTYSLSSTLTLSKADYEKHKVYACEVTHQGLSSPVTKSFNRGEC
# modifications: Synthetically generated peptide
# Legend:
# [1] = Pharmacokinetics and biodistribution of 125I-labeled antibody in mice; format: in vivo, mouse
# Description: The in vivo pharmacokinetics and stability of DX-2240 (produced in HEK293T cells) was determined by iodinating the protein on available tyrosine residues and measuring plasma clearance and stability in mice after a single intravenous dose. Samples were radio-iodinated by the indirect method using the IODO-GEN™ reagent (method from Pierce, and described by Chizzonite et al. ((1991) J. Immunol. 147:1548; (1992) J. Immunol. 148: 3117). Samples were incubated with the ^125I-NaI solution for 9 min at which time tyrosine (10 mg/mL, a saturated solution) was added to quench the reaction. After about 15 min a 5 μl aliquot was removed as a standard for counting. For each labeling reaction, the ^125I-labeled material (approx. 0.6 mL) was purified using a single 5 mL D-salt 1800 polyacrylamide column (Pierce). Columns were washed with 25 mM Tris, 0.4 M NaCl, pH 7.5 containing 2.5% HSA to block nonspecific sites then extensively with the same buffer minus the HSA. Samples were applied in and columns were eluted with a series of 0.3 mL aliquots. Recovery of applied activity in all protein fractions was >75% and the total recovery of applied activity was >90%. The fractions containing peak levels of labeled protein were pooled for animal injections. To prepare the injectate, the pool was diluted with Tris buffer (pH 7.5) so that the 100 μl injection volume contained about 10 μg of labeled material.
# Solutions containing the radio-labeled compounds were administered to all mice by injection into the tail vein. At predetermined times post-administration animals were sacrificed and blood samples were taken for analyses. Time points tested after injection of radio-labeled compounds were: approximately 0, 7, 15, 30 and 90 minutes, 4 h, 8 h, 16 h, 24 h, 48 h and 72 h after injection. Four animals were sacrificed for each time point. At sacrifice, 0.5 mL aliquots of blood were collected into anticoagulant (0.02 mL EDTA) tubes. Plasma was separated from cells by centrifugation and the plasma fraction was divided into two aliquots, one frozen and one stored at 4° C. for immediate analysis.
# Analyses included gamma counting of all samples. […] DX-2240, due to its interaction with Tie1 on the surface of endothelial cells, may accumulate in areas of high vascularization such as the lung. Therefore, multiple administrations of DX-2240 may be required to achieve an effective steady-state level of this antibody in the serum of mice. ELISA on ocular bleeds following three every other day dosings, as well as terminal bleed samples from tumor-bearing mice treated with DX-2220, were performed.
# [2] = SEC-HPLC analysis of plasma samples (in vivo stability); parameters: species or system mouse; conditions: plasma samples at 0 min, 30 min, 90 min, 24 h and 72 h
# Description: In addition, SEC-HPLC analysis of plasma samples to assess the in vivo stability of DX-2240 was performed. Instability of DX-2240 in mouse could have contributed to the fast clearance of this compound from the serum. SEC-HPLC analysis was performed for two plasma samples at time points at 0 min, 30 min, 90 min, 24 h and 72 h. […] Therefore, the relatively rapid half-life of DX-2240 in mice is not due to degradation of this compound.
# [3] = tested on: human LNM35 lung cancer xenografts; test: LNM35 lung cancer xenograft in nude mice; format: in vivo, mouse
# Description: The effect of DX-2220 on tumor growth in mice bearing human LNM35 lung cancer xenografts was tested. For these studies, LNM35 cells were injected subcutaneously in the lateral thorax of athymic nude mice. Four days after tumor cell implantation, treatment was initiated with DX-2220 or A2-SV (negative control antibody) at a dosage of 20 mg/kg, three times a week. Tumor sizes were measured at day 6, 8 and 10 post antibody treatment.
# (§1) In addition to the in vivo studies presented above, four additional mouse xenografts studies were performed. These studies were conducted either according to the protocols used in the SW-480 or LNM35 study.
# (§2) The anti-Tie1 antibody was also evaluated for its effect on implanted tumors. Tumor cells were injected subcutaneously into the abdominal region of mice (Balb/C nu/nu female mice, 5-6 weeks old). The following tumor cells were tested: a lung carcinoma (mouse syngeneic Lewis lung carcinoma (LLC)); human lung carcinoma LNM35; an aggressive human colon carcinoma clone (SW480R). Treatments with anti-Tie1 antibody were initiated 4-6 days post-implantation. The anti-Tie1 antibodies or a control antibody (the A2 anti-streptavidin antibody) were administered intraperitoneally at 20 mg/kg every second day. Tumor volume was measured every second day and calculated as 0.5×height×width×depth.
# [4] = tested on: LLC (mouse lung carcinoma); test: LLC tumor model in mice; format: in vivo; conditions: 20 mg/kg i.p. every second day; p=0.078
# Description: as §1, §2
# [5] = tested on: human colon carcinoma clone (SW480R); test: SW480R tumor model in mice; format: in vivo, mouse; conditions: 20 mg/kg i.p. every second day
# Description: as §2
# [6] = tested on: human myeloid and erythroid progenitors and megakaryocyte progenitors; test: In vitro colony assays of hematopoietic progenitors; format: cell-based; conditions: methylcellulose- and collagen-based assays; concentrations up to 100 μg/ml
# Description: The effect of anti-Tie1 antibodies (DX-2220 and DX-2240) on human myeloid and erythroid progenitors was evaluated using methylcellulose-based in vitro colony assays and megakaryocyte progenitors using collagen-based in vitro assays.
# [7] = tested on: mouse hematopoietic system; test: In vivo myeloablation model (5-FU); conditions: 5-FU on day 0; days 2 to 14
# Description: The effect of the E3 anti-Tie1 antibody DX-2240 on the recovery of the mouse hematopoietic system using an in vivo myeloablation model was evaluated. Mice were injected with 5-FU on day 0 and then received either DX-2240 or a negative control antibody. At various time points following injection (days 2, 4, 6, 8, 10, 12 and 14), 4 mice were sacrificed from control and treated groups and peripheral blood and femurs were harvested. The peripheral blood and femoral cells were analyzed to determine the following: • Total nucleated cells per femur • Frequency of bone marrow colony forming cells for both myeloid and erythroid progenitors • Total hematopoietic CFC per femur • Total megakaryocytic CFC per femur • Total white blood cell count and differential analysis of mature cells
molecule,measurement,setting,value
B1,accumulation in heart,[1]; 30 minutes after i.v. dose,4.04 % ID/g
same,accumulation in kidney,[1]; 30 minutes after i.v. dose,8.34 % ID/g
same,accumulation in liver,[1]; 30 minutes after i.v. dose,5.42 % ID/g
same,accumulation in lungs,[1]; 30 minutes after i.v. dose,12.85 % ID/g
same,accumulation in spleen,[1]; 30 minutes after i.v. dose,7.44 % ID/g
same,half-life in mice,"[1]; single intravenous dose, about 10 μg 125I-labeled antibody",less than 5 hours
same,in vivo stability,[2],stable in vivo both to degradation and to interactions with plasma components
same,inhibition of primary tumor growth,"[3]; 20 mg/kg i.p. every second day, one study, most responsive",60%
same,effect on primary tumor growth,"[3]; doubled antibody dose, administration only twice a week",only a modest effect on primary tumor growth
same,inhibition of primary tumor growth,[4],~20%
same,response of tumor to antibody treatment,[5],not responsive
same,inhibition of colony formation,[6],Neither DX-2220 nor DX-2240 inhibited colony formation
same,recovery of the mouse hematopoietic system,[7],no effect on the recovery of the mouse hematopoietic system following 5-FU administration
